“And” between values parts separate entries of the source, which are not always exact repeats. Equal values may be shown once. Among all 270,000 compounds or so, about 5,800 (2.1%) were called active. The inconclusive results got no clear call from the source; some entries with a clear call stand among them for comparison. Calls come from the whole dose curve; as a rule, active = well fitted inhibition curve with a large enough effect; inconclusive = small, poorly fitted or top-dose-only effect; inactive = flat fitted curve, though single readings scatter. Where the call is inconclusive, the potency comes from a doubtful curve fit.
target: Microtubule-associated protein tau (Homo sapiens) (UniProt P10636); test: qHTS for Inhibitors of Tau Fibril Formation, Thioflavin T Binding; conditions: recombinant tau K18 P301L (four-repeat tau fragment), heparin-induced fibrillization, ThT fluorescence; series mostly up to 57.4 µM; activity, negative = inhibition: at the top concentration; note: nearly all actives have a fitted effect of over 55% in size
UniProt P10636, sequence (P10636 whole entry, looked up, the tested form may be a part): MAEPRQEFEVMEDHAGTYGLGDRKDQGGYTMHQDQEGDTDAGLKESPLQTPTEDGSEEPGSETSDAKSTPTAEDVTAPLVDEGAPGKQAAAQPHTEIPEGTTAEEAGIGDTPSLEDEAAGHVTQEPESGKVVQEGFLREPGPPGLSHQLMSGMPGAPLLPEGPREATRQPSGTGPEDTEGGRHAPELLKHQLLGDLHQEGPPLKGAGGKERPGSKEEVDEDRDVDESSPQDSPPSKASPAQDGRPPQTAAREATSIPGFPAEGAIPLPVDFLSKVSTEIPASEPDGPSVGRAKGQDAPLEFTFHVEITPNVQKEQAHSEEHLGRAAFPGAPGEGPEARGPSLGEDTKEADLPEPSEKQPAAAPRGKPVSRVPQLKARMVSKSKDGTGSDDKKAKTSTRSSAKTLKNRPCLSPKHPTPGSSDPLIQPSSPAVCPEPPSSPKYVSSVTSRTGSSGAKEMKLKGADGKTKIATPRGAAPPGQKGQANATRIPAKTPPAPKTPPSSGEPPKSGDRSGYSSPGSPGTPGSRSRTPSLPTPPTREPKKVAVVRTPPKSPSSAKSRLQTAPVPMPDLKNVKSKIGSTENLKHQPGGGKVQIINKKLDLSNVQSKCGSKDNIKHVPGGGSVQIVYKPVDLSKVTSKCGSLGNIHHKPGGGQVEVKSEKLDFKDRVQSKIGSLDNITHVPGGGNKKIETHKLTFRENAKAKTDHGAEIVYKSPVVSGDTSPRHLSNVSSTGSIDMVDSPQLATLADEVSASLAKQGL
In short: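 K18 P301L tau (15 uM + 0.24 uM Alexa 594-tagged), heparin 20 uM, NaOAc pH 7, 6 h 37 C; ThT 30 uM, 1 h RT, ex 450/em 510 nm.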
% is set by controls: 0 for no effect and ±100 for the full control effect; potency is the fitted concentration of half-maximal effect; tags give direction and shape of the fitted curve.

| SMILES | Potency | activity, negative = inhibition |
| --- | --- | --- |
| Cc1ccc(C(=O)N2CCN(c3ccc(NC(=S)NC(=O)c4cccs4)cc3)CC2)cc1 | inconclusive: 12.6 µM [inhibitor, partial curve] |  |
| COC(=O)N=Nc1c(O)[nH]c2ccc(Br)cc12 | inconclusive: 39.8 µM [inhibitor, single point] |  |
| Cc1ccc(Nc2c(-c3ccc(N4CCOCC4)cc3)nc3c(C)cccn23)cc1 | inconclusive: 10 µM [inhibitor, partial curve] |  |
| O=C(N/N=C/c1sc(N2CCOCC2)nc1-c1ccccc1)c1ccccc1O | inconclusive: 17.8 µM [inhibitor, partial curve] |  |
| CCOC(=O)C1CCCN(c2c(C(=O)c3ccc(C)cc3)cnc3ccc(OCC)cc23)C1 (stereo unspecified) |  | inactive: -16.9% |
| COc1ccc(CC(=O)Nc2ccc3nc(Nc4cccc(Cl)c4)cc(C)c3c2)cc1 | inconclusive: 12.6 µM [inhibitor, partial curve] |  |
| CCNc1ccc(S(=O)(=O)N(C)C)cc1NCC(=O)Nc1ccc(F)c(Cl)c1 |  | inactive: -7.1% |
| CC(C)Nc1nnc(Sc2ccc(Cl)cc2[N+](=O)[O-])s1 |  | inactive: -11.8% |
| COc1ccc(NC(=O)c2c(OC)cccc2OC)c(OC)c1 | inconclusive: 28.2 µM [inhibitor, partial curve] |  |
| Cc1cccc(Nc2ccc([N+](=O)[O-])cc2C(=O)O)c1 | inconclusive: 15.8 µM [inhibitor, partial curve] |  |
| O=C(c1cccc(C(=O)N2CCN(c3ncccn3)CC2)c1)N1CCN(c2ncccn2)CC1 |  | inactive: -8.5% |
| CNC(=O)[C@H](C)[C@H]1C[C@]1(C)[C@H](NC(=O)OCc1ccccc1)c1ccccc1 |  | inactive: -11.3% |
| COc1cc(NS(=O)(=O)c2ccc3[nH]c4c(c3c2)CCCC4)cc(OC)c1OC |  | inactive: -12.6% |
| CN(C)c1ccc(-c2ccc3ncnc(NCc4ccccc4)c3c2)cc1 | inconclusive: 3.55 µM [inhibitor, full curve] |  |
| Nc1c(C(=O)NCCc2ccccc2)nnn1CC(=O)Nc1ccc(Cl)cc1 |  | inactive: 1.8% |
| CCOC(=O)c1nn(-c2ccc(F)cc2)c(-c2ccccc2)c1C(=O)c1ccccc1 |  | inactive: -9.83% |
| CCn1c2ccccc2c2cc(/C(C)=N/O)ccc21 | inconclusive: 28.2 µM [inhibitor, partial curve] |  |
| Cc1cccc(N(C)c2cc(C)nc3nc(C)nn23)c1 |  | inactive: 8.84% |
| Cc1ccc(Cl)cc1N1CCN(C(=O)CCn2c(=O)c3cccn3c3cccnc32)CC1 | inconclusive: 17.8 µM [inhibitor, partial curve] |  |
| CCOC(=O)c1c(C)[nH]c(CCC(=O)NCc2cccc(OC)c2)c1C |  | inactive: -3.68% |
| N=C1C(c2nc(-c3ccc(Cl)cc3)cs2)=C(O)CN1CCCN1CCOCC1 | inconclusive: 14.1 µM [inhibitor, partial curve] |  |
| Cc1cccc(OCc2nc(-c3ccc(-n4cccc4)cc3)no2)c1 | inconclusive: 2.82 µM [inhibitor, full curve] |  |
| CN1C2C=C3C(C#N)=C(N)C(C#N)(C#N)[C@@H](c4ccc(Cl)cc4)[C@@H]3C1CC2 (stereo partly specified) | inconclusive: 31.6 µM [inhibitor, partial curve] |  |

| SMILES | Potency | activity, negative = inhibition |
| --- | --- | --- |
| O=C(N/N=C\c1ccccn1)c1ccccc1O |  | inactive: -15.9% |
| O=C(C[n+]1ccc(CCSc2ccc(F)cc2)cc1)c1ccccc1 | active: 28.2 µM |  |
| Fc1cc(F)c2nc(Nc3nc4cc5c(cc4s3)OCO5)sc2c1 | inconclusive: 3.55 µM [inhibitor, full curve] |  |
| Cc1ccc(C(=O)Nc2nc(=O)n(C(=O)c3ccccc3Cl)s2)cc1 | active: 12.6 µM |  |
| O=C(Nc1ccc(Cl)cc1)N1CCN(Cc2ccc3c(c2)OCO3)CC1 |  | inactive: -6.97% |
| CC(=O)c1ccc(Oc2ccc(C(=O)c3ccc(C)c(C)c3)cc2[N+](=O)[O-])cc1 |  | inactive: 0.665% |
| COC(=O)CC1C(C)(C)C(OC(C)=O)[C@@]2(O)C=C3C4CC(=O)OC(c5ccoc5)[C@]4(C)CCC3[C@@]1(C)C2=O (stereo partly specified) |  | inactive: -12.7% |
| Cc1cccc(C(=O)NNC(=O)/C=C/C(=O)O)c1 | inconclusive: 10 µM [inhibitor, partial curve] |  |
| COCCn1c(SCC(=O)Nc2cccc(C)c2C)nc2c(oc3ccccc32)c1=O | inconclusive: 3.16 µM [inhibitor, full curve, poor fit] |  |
| O=[N+]([O-])c1ccc(C2CC(c3ccccc3)=Nc3ccccc3S2)cc1 (stereo unspecified) | inconclusive: 14.1 µM [inhibitor, partial curve] |  |
| CCCCCc1ccc(OCCCC[n+]2cccc(C)c2)c(CCCCC)c1 | inconclusive: 2.82 µM [inhibitor, single point] |  |
| COCCN(C(=O)COc1ccc(Cl)cc1)c1nnc(-c2cccnc2)s1 |  | inactive: 1.41% |
| Cc1cc(/C=C2\SC(=O)NC2=O)c(C)n1-c1ccc(N2CCOCC2)cc1 | inconclusive: 0.631 µM [inhibitor, full curve] |  |
| O=c1c2c3c(sc2n(Cc2ccccc2F)c(=O)n1-c1ccc(Cl)cc1)CCCC3 |  | inactive: 5.56% |
| Cc1cccc(C(=O)N2CCC(N3CCN(Cc4ccc(F)cc4)C(=O)C3=O)CC2)c1 |  | inactive: -13.2% |
| Cc1cc2c(cc3c(SCc4cccc(F)c4)nnc(C)n32)o1 | inconclusive: 14.1 µM [inhibitor, partial curve] |  |
| Cc1[nH]nc2c1C(c1ccccc1F)NC2=O (stereo unspecified) |  | inactive: -5.65% |
| COc1ccc2c(=O)c(-c3ccccc3)coc2c1 | inconclusive: 10 µM [inhibitor, partial curve] and inconclusive: 2 µM [inhibitor, full curve] |  |
| COc1cc(NC(=O)CN2C(=O)C(c3ccc(Cl)cc3)=NC23CCCCC3)cc(OC)c1 |  | inactive: 3.18% |
| CC(=O)c1ccc(NC(=O)CCCN2C(=O)/C(=C/C(C)=C/c3ccccc3)SC2=S)cc1 | inconclusive: 3.55 µM [inhibitor, full curve] |  |
| CC(C)c1ccc(C2c3c(oc4ccc(Cl)cc4c3=O)C(=O)N2CCCN2CCOCC2)cc1 (stereo unspecified) | inconclusive: 15.8 µM [inhibitor, partial curve] |  |
| Cc1cccc(CC(=O)NC2CC(=O)N(c3ccccc3)C2)c1 (stereo unspecified) |  | inactive: -6.1% |
| CCOC(=O)C1=C(C)N(c2ccc(C)cc2)C(=O)/C1=C\c1ccc(O)c(OC)c1 | active: 25.1 µM |  |

— PubChem BioAssay AID1460 (National Center for Advancing Translational Sciences (NCATS), 2008)
